This passage reports displacement results from PubChem BioAssay AID1240 (Sanford-Burnham Center for Chemical Genomics, 2008).

Molecules are shown by their SMILES. The whole screen tested about 50,000 compounds, of which about 800 (1.6%) showed an effect of 50% or more. Some of the results follow.

The experiment addresses Bcl-2-like protein 10 (Homo sapiens) (UniProt Q9HD36). The experiment can be described thus: TR3 peptide-Bcl-B binding displacers, biochemical primary FP assay, phenotype converters (AID 1240).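 Also: 0% = Bcl-B with tracer peptide and DMSO and 100% = tracer peptide lacking Bcl-B.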 The conditions noted are these: GST-Bcl-B / FITC-TR3 peptide fluorescence polarization; stronger effect = higher value; compound at 3.75 mg/L. Background: Polarisation of emitted light reports the rotation of a fluorescent probe.
Chain of UniProt Q9HD36 (Q9HD36 whole entry, looked up): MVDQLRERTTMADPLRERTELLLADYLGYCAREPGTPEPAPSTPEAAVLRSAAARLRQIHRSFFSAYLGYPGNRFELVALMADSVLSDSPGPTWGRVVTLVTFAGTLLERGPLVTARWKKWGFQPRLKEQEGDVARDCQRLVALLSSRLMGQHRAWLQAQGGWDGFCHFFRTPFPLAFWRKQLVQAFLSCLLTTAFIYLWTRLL
Consider `O=C(Cc1nc(O)cs1)c1ccccc1`, for which the displacement worked out at 4.6%.
Then `COc1ccc(COC(=O)C2=C(C)NC3=C(C(=O)CC(C)(C)C3)C2c2cc([N+](=O)[O-])ccc2Cl)cc1` (stereo not drawn), with -1.2%.
Then `S=C(NCc1ccco1)NC1CCCC1`, with 5.3%.
The result for `NC(=O)c1ccc(NC(=O)c2cc3ccccc3cc2O)cc1` reads -8.6%.
Take `COC(=O)c1c(NC(=O)C(C)C)sc2c1CCCCC2`: the displacement is -8.3%.
The result for `O=S(=O)(Cc1ccccc1)CC(O)COc1ccc(Cl)cc1` (stereo not drawn) reads -8.8%.
Then `O=C(Nc1cccc([N+](=O)[O-])c1)C1COc2ccccc2O1` (stereo not drawn), with -4.5%; and `CCSc1nc2sc3c(c2c(=O)n1-c1ccc(OC)cc1)CCC3`, with 47.7%.
Regarding `Cc1cccc(-n2c(SCC(=O)c3ccccc3)nc3ccccc3c2=O)c1`, the displacement was -0.7%.
The result for `CCOc1cc(/C=N/Nc2nc(N3CCCCC3)nc(N3CCCCC3)n2)ccc1OC` reads 8.6%.
Take `CC1=NN(c2ccccc2)C(=O)/C1=C\c1cn(CCC#N)nc1-c1ccc(C)o1`: the displacement was -20.1%.
Regarding `CCOc1ccc(NC(=O)CN(c2cc(Cl)cc(Cl)c2)S(C)(=O)=O)cc1`, the displacement turned out to be 8.6%.
In the case of `CCOC(=O)c1ccc(NC(=O)CN2C(=O)/C(=C/c3ccc(C)cc3)SC2=S)cc1`, the displacement amounted to 12%.
Then `Cc1cccc(C)c1OCC(=O)Nc1ccc(Br)cc1C(=O)O`, with 12%; and `COC(C)(C)CCCC(C)COC(C)=O` (stereo not drawn), with -8%; and `Oc1ccc(/C=N/N2CCN(Cc3cccc4ccccc34)CC2)cc1O`, with 3.1%.
`COc1ccc(N2C(=O)NC(=O)/C(=C\c3cc(Br)c(OC)cc3OC)C2=O)cc1`: the displacement is 15.7%.
The result for `O=C(Nc1ccc2nsnc2c1)c1cccs1` reads -20.5%; that for `O=C(CCN1C(=O)/C(=C\c2cccs2)SC1=S)N1CCOCC1`, 7.5%; that for `COc1ccc(CNS(=O)(=O)c2c(C)cc(C)cc2C)cc1`, -5.5%.
The result for `O=C(Cc1ccccc1)Nc1cccc(-c2nnc(-c3cccc(NC(=O)Cc4ccccc4)c3)o2)c1` reads 14.2%; that for `O=C1NC(=O)N(c2cccc(Br)c2)C(=O)/C1=C/C=C/c1ccccc1`, 17.1%; that for `Nc1c(C(=O)C2CC2)sc2nc3c(cc12)CCC3`, -4.1%.
The result for `CCOCCOC(=O)c1ccc(NC(=O)c2cccs2)cc1` reads -7.9%; that for `Cc1cc(OC(C)C)c2c(-c3ccccc3)cc(=O)oc2c1`, 1.2%; that for `CCOc1ccc2nc(NC(=O)COc3ccccc3C)sc2c1`, 8.1%.
Regarding `CCN(CC)Cc1c(O)ccc2c(=O)c(-c3ccc(Cl)cc3)coc12`, the displacement was -1.1%.
Then `COc1ccc(Cl)cc1N(CC(=O)Nc1cc(C)ccc1C)S(=O)(=O)c1ccc(C)cc1`, with 0.9%; and `C[n+]1ccn2c3c(c4cc(C5CCCCC5)ccc42)CCCc31`, with 49.2%; and `Cc1ccc(N2NC(=O)/C(=C\c3ccc4c(c3)OCO4)C2=O)cc1`, with 2.9%.
The result for `CN(C)CCN1C(=O)C(=O)/C(=C(/O)c2ccccc2)C1c1ccccc1` (stereo not drawn) reads -4%.
Then `Cc1cccc(Cl)c1NC(=O)C1CC(=O)N(c2ccc(Br)cc2)C1` (stereo not drawn), with 10.9%.
For `Cc1c(NC(=O)c2cc3n(n2)C(C(F)(F)F)CC(c2ccc(Cl)c(Cl)c2)N3)c(=O)n(-c2ccccc2)n1C` (stereo not drawn), the displacement came to 10.5%.
Turning to `Cc1ccccc1NC(=O)c1cccc(N2C(=O)c3ccc(C(=O)O)cc3C2=O)c1`, the displacement is -13%.
The result for `CC(C)COC(=O)c1ccc(NC(=O)COc2ccccc2Cl)cc1` reads -4.9%; that for `O=C(CSc1ncn[nH]1)c1ccc(Br)cc1`, 8.5%.
With `COc1ccc(C(=O)N2c3ccccc3C(N(C(C)=O)c3ccccc3)CC2C)cc1` (stereo not drawn), the displacement was determined as 0.4%.
Then `CCOc1c(Cl)cc(/C=C2\C(=O)NC(=O)N(C)C2=O)cc1Cl`, with -7.7%; and `CCN(CC)CCCCCCOc1ccc(OC)cc1`, with 10%.
In the case of `CCOc1ccc(-c2cc(C)n3nc(C(=O)N4CCOCC4)cc3n2)cc1`, the displacement turned out to be 0.5%.
The result for `CCOc1cc(Br)cc(C=Nc2ccccc2Sc2c(C)n[nH]c2C)c1O` reads 1.3%; that for `CCOC(=O)C(CCC(=O)CC(C)C)C(C)=O` (stereo not drawn), -16%; that for `CCOC(=O)c1ccc(-c2ccc(/C=C3/C(=O)NC(=O)N(c4ccc(OC)cc4)C3=O)o2)cc1`, 86.2%.
The result for `C=CCON/C(CCC)=C1/C(=O)CC(C)(C)CC1=NC` reads -4.4%.
The result for `CCCS(=O)(=O)C(=C(Nc1ccccc1)Nc1ccccc1)S(=O)(=O)CCC` reads 15.2%; that for `CCOC(=O)CCCSc1nc2sc3c(c2c(=O)[nH]1)CCCC3`, 2.2%; that for `Cc1c(-c2ccccc2)nc2ccccc2c1C(=O)NCCCc1ccccc1`, 3.3%.
Consider `COc1ccccc1N(CC(=O)Nc1ccccc1)S(=O)(=O)c1ccccc1`, for which the displacement turned out to be 4.5%.
Turning to `CCOC(=O)c1ccc(N=Cc2cccc(OC)c2O)cc1`, the displacement is 2.2%.
The result for `Cc1cc(Br)ccc1NC(=O)c1ccccc1` reads 8.3%; that for `O=S(=O)(N/N=C/c1cccnc1)c1ccc(Br)cc1`, 0.3%; that for `O=c1c2ccccc2nc(/C=C/c2c(O)ccc3ccccc23)n1-c1ccc(O)cc1`, 0.9%.
The result for `Cc1n[nH]c(C)c1Sc1ccccc1N=Cc1cc(Br)ccc1O` reads 6.6%; that for `Cc1ccc2cc(C)c(NCc3ccccn3)nc2c1`, -2.3%; that for `CCc1ccc(-n2c(C)cc(/C=N\NC(=O)c3ccco3)c2C)cc1`, -3%.
The result for `O=C1S/C(=C\c2ccccc2[N+](=O)[O-])C(=O)N1Cc1ccccc1` reads -9%.
For `O=C(/C=C/c1ccccc1Cl)NCc1cccnc1`, the displacement was 4.7%.
Then `O=c1[nH]c(-c2cc(Cl)ccc2O)nc2sc3c(c12)CCCC3`, with -11.4%; and `CCC(C(=O)Nc1cc(C(=O)OC)cc(C(=O)OC)c1)c1ccccc1` (stereo not drawn), with 3%; and `COc1ccc(O)c(CN2CCN(Cc3ccccc3[N+](=O)[O-])CC2)c1`, with 19.6%.
Then `O=C(/C=C/c1ccco1)/C=C/c1ccc(-c2ccc(Cl)c(Cl)c2)o1`, with -23%; and `Cc1ccc(-n2nc3ccc(NC(=S)NC(=O)c4ccccc4Cl)cc3n2)cc1Cl`, with 14.7%; and `Cc1ccc(S(=O)(=O)NCCOc2ccccc2Cl)cc1[N+](=O)[O-]`, with 13%.
For `COc1ccccc1CC(=O)Nc1ccc(Br)cc1C(=O)O`, the displacement was -0.9%.
Then `O=C(O)CCCCCN1C(=O)C(=O)/C(=C(/O)c2ccc(F)cc2)C1c1ccccc1Cl` (stereo not drawn), with -4.5%; and `N#C/C(=C/c1ccc(Sc2ccccc2)o1)C(=O)Nc1ccc(F)cc1`, with -1.7%.
The result for `Cc1ccccc1C(=O)Nc1cccc(NC(=O)COc2ccc(Cl)cc2Cl)c1` reads -13.4%; that for `C/C(=N\NC(=O)C1(C)CC1(Br)Br)c1ccncc1` (stereo not drawn), -6.4%; that for `O=C1ON=C(c2ccc(Cl)cc2)/C1=C/C=C/c1ccccc1`, -18.8%.
Then `Cc1cc(C)n(-c2cc(N/N=C/c3cccc(F)c3)nc(C)n2)n1`, with -11.3%; and `O=C(NCc1ccccn1)C(=O)Nc1nccs1`, with -18%; and `O=C1N=c2ccccc2=C1c1s/c(=N\Nc2ccccc2)n(-c2ccccc2)c1O`, with -4.3%.
For `COc1ccc(C(=O)NNC(=O)c2cccc(C)c2)c(OC)c1`, the displacement was determined as 3.3%.
Turning to `COc1ccccc1C(=O)Nc1cc(-c2nc3ncccc3o2)ccc1C`, the displacement was found to be 24%.
As for `CC(C)C(=O)Nc1ccc2c3c(cccc13)CC2`, the displacement was found to be 11.2%.
The result for `CCCOC(=O)c1ccc(NC(=O)OC)cc1` reads -1.5%; that for `CCCC1CCc2c(sc(NC(=O)c3ccccc3F)c2C(N)=O)C1` (stereo not drawn), 2.6%; that for `O=C1CC(Cc2ccc(Cl)cc2)C(=O)N1c1ccc(F)cc1` (stereo not drawn), -10.1%.
`Cc1ccc(NC(=O)c2cccc(F)c2)cc1C`: the displacement was found to be 2.2%.
The result for `COc1ccc(-c2nc(-c3ccccc3)c(-c3cc([N+](=O)[O-])ccc3C)[nH]2)c(OC)c1` reads 11%; that for `Brc1cccc(-c2nnc(-c3ccc4c(c3)OCO4)o2)c1`, 2%.
As for `Cc1ccc(C(=O)N2CCN(c3ccc([N+](=O)[O-])cc3)CC2C)cc1` (stereo not drawn), the displacement turned out to be 7.8%.
Then `C=CCNC(=O)CN(Cc1ccccc1)S(=O)(=O)c1ccc(OC)cc1`, with -7.4%; and `Cc1[nH]n(-c2ccccc2)c(=O)c1C(c1ccc(OC(=O)c2ccccc2F)cc1)c1c(C)[nH]n(-c2ccccc2)c1=O`, with 6.6%.
Turning to `COc1cccc(/C=C(\C#N)c2nc3ccc(C)cc3[nH]2)c1OCC(=O)O`, the displacement turned out to be 1.6%.
As to `COC(=O)C1=C(C)N(C)C(C)=C(C(=O)OC)C1c1ccc(C)c([N+](=O)[O-])c1`, the displacement was -5.8%.
The result for `O=C(COc1ccc(Br)cc1)Nc1nc2ccccc2s1` reads 2.7%; that for `COc1cc(/C=C2/SC(=S)N(CCC(=O)Nc3ccccc3C(F)(F)F)C2=O)cc(OC)c1OC`, 18%.
The result for `COc1cc(NC(=O)c2cncc(Br)c2)c(OC)cc1Cl` reads 14.9%; that for `Nc1sc2c(c1C(=O)Nc1ccccc1Cl)CCC2`, -5.4%.
As to `O=C(O)c1ccc(Br)c(S(=O)(=O)Nc2ccc(NC(=O)c3ccccc3)cc2)c1`, the displacement worked out at 3.9%.
Then `O=C1c2cccc3cccc(c23)C(=O)N1CCCN1CCCCC1`, with 3.1%.
Then `O=C1/C(=c2\sc3nc4ccccc4n3c2=O)c2ccccc2N1Cc1ccccc1`, with -7.1%; and `CCOC(=O)C1=C(O)/C(=C/c2ccc(Cl)c(Cl)c2)SC1=Nc1ccc([N+](=O)[O-])cc1`, with -5.5%.
Regarding `O=C(O)CCCCCN1C(=O)C(=O)/C(=C(/O)c2ccc(F)cc2)C1c1ccccc1` (stereo not drawn), the displacement was -4.1%.
The result for `CNC(=O)/C(=C\c1ccc(Cl)cc1)NC(=O)c1ccccc1` reads 1.1%.
As for `CCN(CC)c1ccc(N2C(=O)/C(=C/C=C/c3ccccc3)SC2=S)cc1`, the displacement was -4.2%.
Then `O=C(NCCCN1CCOCC1)c1ccccc1Br`, with 2.7%; and `Cc1ccc(/C=C2\SC(=S)N(Nc3ccccc3)C2=O)o1`, with -9.4%.
Then `O=C(N/N=C/c1ccc(Cl)c([N+](=O)[O-])c1)/C(=C\c1ccc2c(c1)OCO2)NC(=O)c1ccccc1`, with -5.8%; and `CCOc1ccccc1NC(=O)C(=O)NCCc1ccccc1`, with 8.7%.
The result for `CC(C)c1cc(Nc2nccs2)cc(C(C)C)c1O` reads 5.5%; that for `c1ccc2c(c1)c1ccccc1n2CCCN1CCCCC1`, -6%; that for `COc1ccc(Cn2c(SC)nc3ccccc32)cc1`, 12.8%.
With `N=C1C(c2nc3ccccc3c(=O)[nH]2)=C(O)CN1c1ccc2c(c1)OCO2`, the displacement was determined as 5.9%.
Then `CC1=C(C(=O)Nc2ccccc2)C(c2ccc(-c3ccccc3)cc2)NC(=S)N1` (stereo not drawn), with -6.4%.
Then `O=C(CSCC(=O)Nc1ccccc1)NCc1ccco1`, with -20.8%.
The result for `COc1ccccc1C1CC(c2c(-c3ccccc3)c3cc(Cl)ccc3[nH]c2=O)=NN1C(=O)CCC(=O)O` (stereo not drawn) reads 8.3%.
